{
  "source": "the supplement of paper PMC8728848",
  "binders": {"B1": {"name": "FBG4 (Homo sapiens), Q96EF6 (protein)", "chain": "MGARLSRRRLPADPSLALDALPPELLVQVLSHVPPRSLVTRCRPVCRAWRDIVDGPTVWLLQLARDRSAEGRALYAVAQRCLPSNEDKEEFPLCALARYCLRAPFGRNLIFNSCGEQGFRGWEVEHGGNGWAIEKNLTPVPGAPSQTCFVTSFEWCSKRQLVDLVMEGVWQELLDSAQIEICVADWWGARENCGCVYQLRVRLLDVYEKEVVKFSASPDPVLQWTERGCRQVSHVFTNFGKGIRYVSFEQYGRDVSSWVGHYGALVTHSSVRVRIRLS"}},
  "test_in_all_cases": "glycan array binding signal (z-score within array); higher = stronger binding",
  "conditions_in_all_cases": "glycan notation: IUPAC condensed, linker removed",
  "key": {"[1]": {"biological_target": "GlcNAc(b1-2)Man(a1-3)[GlcNAc(b1-2)Man(a1-6)]Man(b1-4)GlcNAc(b1-4)GlcNAc", "summary_of_the_method": "(§1)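 Negative Z-scores can be read as non-binding. The Z-score is calculated within each array and then averaged across arrays of one protein sequence at different concentrations or buffers and across linkers. Arrays, 3228 in all, were curated from the Consortium for Functional Glycomics database and kept only where the protein sequence was available.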"}, "GlcNAc(b1-3)Gal": {"biological_target": "GlcNAc(b1-3)Gal", "summary_of_the_method": "as §1"}, "[2]": {"biological_target": "GlcNAc(b1-3)Gal(b1-3)GalNAc", "summary_of_the_method": "as §1"}, "GlcNAc(b1-3)Gal(b1-4)Glc": {"biological_target": "GlcNAc(b1-3)Gal(b1-4)Glc", "summary_of_the_method": "as §1"}, "[3]": {"biological_target": "GlcNAc(b1-3)Gal(b1-4)GlcNAc", "summary_of_the_method": "as §1"}, "[4]": {"biological_target": "GlcNAc(b1-3)Gal(b1-4)GlcNAc(b1-3)Gal(b1-4)GlcNAc", "summary_of_the_method": "as §1"}, "GlcNAc(b1-3)GalNAc": {"biological_target": "GlcNAc(b1-3)GalNAc", "summary_of_the_method": "as §1"}, "[5]": {"biological_target": "GlcNAc(b1-3)[GlcNAc(b1-4)][GlcNAc(b1-6)]GlcNAc", "summary_of_the_method": "as §1"}, "[6]": {"biological_target": "GlcNAc(b1-3)[GlcNAc(b1-6)]Gal(b1-4)GlcNAc", "summary_of_the_method": "as §1"}, "[7]": {"biological_target": "GlcNAc(b1-3)[GlcNAc(b1-6)]GlcNAc", "summary_of_the_method": "as §1"}, "[8]": {"biological_target": "GlcNAc(b1-4)Gal(b1-4)GlcNAc", "summary_of_the_method": "as §1"}, "[9]": {"biological_target": "GlcNAc(b1-4)GlcNAc(b1-4)GlcNAc", "summary_of_the_method": "as §1"}, "[10]": {"biological_target": "GlcNAc(b1-4)GlcNAc(b1-4)GlcNAc(b1-4)GlcNAc(b1-4)GlcNAc", "summary_of_the_method": "as §1"}, "[11]": {"biological_target": "GlcNAc(b1-4)GlcNAc(b1-4)GlcNAc(b1-4)GlcNAc(b1-4)GlcNAc(b1-4)GlcNAc", "summary_of_the_method": "as §1"}, "[12]": {"biological_target": "GlcNAc(b1-4)[GlcNAc(b1-6)]GalNAc", "summary_of_the_method": "as §1"}, "[13]": {"biological_target": "GlcNAc(b1-6)Gal(b1-4)GlcNAc", "summary_of_the_method": "as §1"}, "GlcNAc(b1-6)GalNAc": {"biological_target": "GlcNAc(b1-6)GalNAc", "summary_of_the_method": "as §1"}, "Kdn(a2-3)Gal(b1-3)GlcNAc": {"biological_target": "Kdn(a2-3)Gal(b1-3)GlcNAc", "summary_of_the_method": "as §1"}, "Kdn(a2-3)Gal(b1-4)GlcNAc": {"biological_target": "Kdn(a2-3)Gal(b1-4)GlcNAc", "summary_of_the_method": "as §1"}, "[14]": {"biological_target": "Man(a1-2)Man(a1-2)Man(a1-3)Man", "summary_of_the_method": "as §1"}, "[15]": {"biological_target": "Man(a1-2)Man(a1-2)Man(a1-3)[Man(a1-2)Man(a1-3)[Man(a1-2)Man(a1-6)]Man(a1-6)]Man(b1-4)GlcNAc(b1-4)GlcNAc", "summary_of_the_method": "as §1"}, "[16]": {"biological_target": "Man(a1-2)Man(a1-2)Man(a1-3)[Man(a1-2)Man(a1-6)[Man(a1-3)]Man(a1-6)]Man(b1-4)GlcNAc(b1-4)GlcNAc", "summary_of_the_method": "as §1"}, "[17]": {"biological_target": "Man(a1-2)Man(a1-2)Man(a1-6)[Man(a1-3)]Man", "summary_of_the_method": "as §1"}, "Man(a1-2)Man(a1-3)Man": {"biological_target": "Man(a1-2)Man(a1-3)Man", "summary_of_the_method": "as §1"}, "[18]": {"biological_target": "Man(a1-2)Man(a1-3)[Man(a1-2)Man(a1-6)]Man", "summary_of_the_method": "as §1"}, "[19]": {"biological_target": "Man(a1-2)Man(a1-3)[Man(a1-3)[Man(a1-6)]Man(a1-6)]Man(b1-4)GlcNAc(b1-4)GlcNAc", "summary_of_the_method": "as §1"}, "[20]": {"biological_target": "Man(a1-2)Man(a1-3)[Man(a1-6)]Man(a1-6)[Man(a1-2)Man(a1-3)]Man(b1-4)GlcNAc(b1-4)GlcNAc", "summary_of_the_method": "as §1"}, "Man(a1-3)[Man(a1-6)]Man": {"biological_target": "Man(a1-3)[Man(a1-6)]Man", "summary_of_the_method": "as §1"}, "[21]": {"biological_target": "Man(a1-3)[Man(a1-6)]Man(a1-6)[Man(a1-3)]Man(b1-4)GlcNAc(b1-4)GlcNAc", "summary_of_the_method": "as §1"}, "[22]": {"biological_target": "Man(a1-3)[Man(a1-6)]Man(b1-4)GlcNAc(b1-4)GlcNAc", "summary_of_the_method": "as §1"}, "Man(b1-4)GlcNAc": {"biological_target": "Man(b1-4)GlcNAc", "summary_of_the_method": "as §1"}, "Neu5Ac(a2-3)Gal": {"biological_target": "Neu5Ac(a2-3)Gal", "summary_of_the_method": "as §1"}, "[23]": {"biological_target": "Neu5Ac(a2-3)Gal(b1-3)GalNAc", "summary_of_the_method": "as §1"}, "[24]": {"biological_target": "Neu5Ac(a2-3)Gal(b1-3)GalNAc(b1-3)Gal(a1-4)Gal(b1-4)Glc", "summary_of_the_method": "as §1"}, "[25]": {"biological_target": "Neu5Ac(a2-3)Gal(b1-3)GalNAc(b1-4)[Neu5Ac(a2-3)]Gal(b1-4)Glc", "summary_of_the_method": "as §1"}, "[26]": {"biological_target": "Neu5Ac(a2-3)Gal(b1-3)GalNAc6S", "summary_of_the_method": "as §1"}, "[27]": {"biological_target": "Neu5Ac(a2-3)Gal(b1-3)GlcNAc", "summary_of_the_method": "as §1"}, "[28]": {"biological_target": "Neu5Ac(a2-3)Gal(b1-3)GlcNAc(b1-3)Gal(b1-3)GlcNAc", "summary_of_the_method": "as §1"}, "[29]": {"biological_target": "Neu5Ac(a2-3)Gal(b1-3)GlcNAc(b1-3)Gal(b1-4)GlcNAc", "summary_of_the_method": "as §1"}, "[30]": {"biological_target": "Neu5Ac(a2-3)Gal(b1-3)GlcNAc6S", "summary_of_the_method": "as §1"}, "[31]": {"biological_target": "Neu5Ac(a2-3)Gal(b1-3)[Fuc(a1-4)]GlcNAc", "summary_of_the_method": "as §1"}, "[32]": {"biological_target": "Neu5Ac(a2-3)Gal(b1-3)[Fuc(a1-4)]GlcNAc(b1-3)Gal(b1-4)[Fuc(a1-3)]GlcNAc", "summary_of_the_method": "as §1"}, "[33]": {"biological_target": "Neu5Ac(a2-3)Gal(b1-3)[Neu5Ac(a2-3)Gal(b1-4)]GlcNAc", "summary_of_the_method": "as §1"}},
  "note": "The other results are listed elsewhere or left out.",
  "data": [
    {"binder": "B1", "values": [
      {"measurement": "glycan array binding signal (z-score)", "setting": "[1]", "result": 0.225},
      {"measurement": "glycan array binding signal (z-score)", "setting": "GlcNAc(b1-3)Gal", "result": -0.567},
      {"measurement": "glycan array binding signal (z-score)", "setting": "[2]", "result": -0.546},
      {"measurement": "glycan array binding signal (z-score)", "setting": "GlcNAc(b1-3)Gal(b1-4)Glc", "result": -0.455},
      {"measurement": "glycan array binding signal (z-score)", "setting": "[3]", "result": 0.624},
      {"measurement": "glycan array binding signal (z-score)", "setting": "[4]", "result": -0.193},
      {"measurement": "glycan array binding signal (z-score)", "setting": "GlcNAc(b1-3)GalNAc", "result": -0.654},
      {"measurement": "glycan array binding signal (z-score)", "setting": "[5]", "result": -0.093},
      {"measurement": "glycan array binding signal (z-score)", "setting": "[6]", "result": -0.482},
      {"measurement": "glycan array binding signal (z-score)", "setting": "[7]", "result": -0.379},
      {"measurement": "glycan array binding signal (z-score)", "setting": "[8]", "result": -0.492},
      {"measurement": "glycan array binding signal (z-score)", "setting": "[9]", "result": -0.2},
      {"measurement": "glycan array binding signal (z-score)", "setting": "[10]", "result": 0.642},
      {"measurement": "glycan array binding signal (z-score)", "setting": "[11]", "result": 1.31},
      {"measurement": "glycan array binding signal (z-score)", "setting": "[12]", "result": -0.527},
      {"measurement": "glycan array binding signal (z-score)", "setting": "[13]", "result": -0.538},
      {"measurement": "glycan array binding signal (z-score)", "setting": "GlcNAc(b1-6)GalNAc", "result": -0.62},
      {"measurement": "glycan array binding signal (z-score)", "setting": "Kdn(a2-3)Gal(b1-3)GlcNAc", "result": -0.481},
      {"measurement": "glycan array binding signal (z-score)", "setting": "Kdn(a2-3)Gal(b1-4)GlcNAc", "result": -0.448},
      {"measurement": "glycan array binding signal (z-score)", "setting": "[14]", "result": -0.488},
      {"measurement": "glycan array binding signal (z-score)", "setting": "[15]", "result": 0.115},
      {"measurement": "glycan array binding signal (z-score)", "setting": "[16]", "result": 0.035},
      {"measurement": "glycan array binding signal (z-score)", "setting": "[17]", "result": -0.346},
      {"measurement": "glycan array binding signal (z-score)", "setting": "Man(a1-2)Man(a1-3)Man", "result": -0.412},
      {"measurement": "glycan array binding signal (z-score)", "setting": "[18]", "result": -0.321},
      {"measurement": "glycan array binding signal (z-score)", "setting": "[19]", "result": -0.18},
      {"measurement": "glycan array binding signal (z-score)", "setting": "[20]", "result": 0.121},
      {"measurement": "glycan array binding signal (z-score)", "setting": "Man(a1-3)[Man(a1-6)]Man", "result": -0.577},
      {"measurement": "glycan array binding signal (z-score)", "setting": "[21]", "result": 0.208},
      {"measurement": "glycan array binding signal (z-score)", "setting": "[22]", "result": 0.275},
      {"measurement": "glycan array binding signal (z-score)", "setting": "Man(b1-4)GlcNAc", "result": -0.448},
      {"measurement": "glycan array binding signal (z-score)", "setting": "Neu5Ac(a2-3)Gal", "result": -0.451},
      {"measurement": "glycan array binding signal (z-score)", "setting": "[23]", "result": -0.559},
      {"measurement": "glycan array binding signal (z-score)", "setting": "[24]", "result": -0.427},
      {"measurement": "glycan array binding signal (z-score)", "setting": "[25]", "result": -0.377},
      {"measurement": "glycan array binding signal (z-score)", "setting": "[26]", "result": 0.086},
      {"measurement": "glycan array binding signal (z-score)", "setting": "[27]", "result": -0.533},
      {"measurement": "glycan array binding signal (z-score)", "setting": "[28]", "result": -0.268},
      {"measurement": "glycan array binding signal (z-score)", "setting": "[29]", "result": -0.617},
      {"measurement": "glycan array binding signal (z-score)", "setting": "[30]", "result": 0.76},
      {"measurement": "glycan array binding signal (z-score)", "setting": "[31]", "result": -0.472},
      {"measurement": "glycan array binding signal (z-score)", "setting": "[32]", "result": -0.341},
      {"measurement": "glycan array binding signal (z-score)", "setting": "[33]", "result": -0.538}
    ]}
  ]
}
